# Data reported in PubChem BioAssay AID588795 (National Center for Advancing Translational Sciences (NCATS), 2011).
# Hit rate of the full screen: of about 390,000 compounds, about 1,400 (0.36%) were called active. Inconclusive means that the source gave no clear call. Such entries were picked first, then a sample of the others. The call rests on the fitted dose curve; in most records, active means well fitted inhibition curve with a large enough effect; inconclusive means small, poorly fitted or top-dose-only effect; inactive means no such curve, though single readings can be large or run the other way. Potencies beside an inconclusive call are fits to weak or partial responses and may not hold up.
# Molecular target: Flap endonuclease 1 (Homo sapiens) (UniProt P39748)
# Test: qHTS Assay for the Inhibitors of Human Flap endonuclease 1 (FEN1). Further: nearly all actives have a fitted effect of over 65% in size.
# Conditions: Recombinant FEN1 flap cleavage, fluorescence, 15 min; series mostly up to 114 µM
# How it was run: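 Compounds are tested as a concentration series against 10 nM FEN1; after a 15 min room-temperature preincubation, 50 nM substrate starts cleavage, with plate reads at 0 and 15 min. Normalized responses are fitted by a Hill equation.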
# Potency means the concentration at half of the fitted maximal effect; tags describe the fitted curve by direction and shape.
# UniProt P39748, sequence (P39748 whole entry, looked up): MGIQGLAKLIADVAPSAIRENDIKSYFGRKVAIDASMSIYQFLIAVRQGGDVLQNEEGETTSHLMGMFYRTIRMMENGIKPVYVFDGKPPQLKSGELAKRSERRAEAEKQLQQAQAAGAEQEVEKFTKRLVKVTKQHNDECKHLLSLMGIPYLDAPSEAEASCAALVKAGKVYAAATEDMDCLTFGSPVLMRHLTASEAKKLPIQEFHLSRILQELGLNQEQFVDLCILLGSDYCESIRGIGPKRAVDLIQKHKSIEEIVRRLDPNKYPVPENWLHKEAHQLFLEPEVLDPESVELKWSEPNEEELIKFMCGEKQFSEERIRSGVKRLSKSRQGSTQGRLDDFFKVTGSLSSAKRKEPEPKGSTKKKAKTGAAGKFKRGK
row,Compound,Potency
1,COc1ccc(-c2cc(=NCC(=O)O)c3ccccc3o2)cc1,"inconclusive: 79.4 µM [inhibitor, single point]"
2,COC(=O)C1=C(c2ccc(-c3ccccc3)c(F)c2)C[C@@H]2CC[C@H]1N2C(=O)NCCCOC(C)C,"inconclusive: 79.4 µM [inhibitor, partial curve, poor fit]"
3,CN1C(=O)C(=Cc2c(OCc3cnc(Cl)s3)ccc3ccccc23)C(=O)N(C)C1=O,"inconclusive: 56.2 µM [inhibitor, single point]"
4,C[C@]12CCC3C(C1CCC2=O)[C@H](O)C[C@H]1C[C@@H](O)CC[C@]31C (stereo partly specified),inactive
5,CN1CC[C@@]2(C)c3cc(O)ccc3N(C)[C@@H]12,"inconclusive: 1.78 µM [inhibitor, full curve, poor fit]"
6,Cc1cc(OCc2cc(C(=O)O)oc2C)c2c3c(c(=O)oc2c1)CCCC3,"inconclusive: 79.4 µM [inhibitor, partial curve, poor fit]"
7,Cc1cc(N2CCCCC2)ccc1C=C1C(=O)N(C)C(=S)N(C)C1=O,inactive
8,Oc1cccc2nc3ccccc3nc12,"inconclusive: 44.7 µM [inhibitor, partial curve, poor fit]"
9,COc1ccc2c3c([nH]c2c1)C(C)NCC3 (stereo unspecified),"inconclusive: 39.8 µM [inhibitor, partial curve]"
10,CCNC(=S)NCCC1=c2ccccc2=N/C1=C\c1c(O)n(C)c(=O)n(C)c1=O,"inconclusive: 8.91 µM [inhibitor, full curve, poor fit]"
11,CC[C@@]1(O)C(=O)OCc2c1cc1n(c2=O)Cc2cc3c(N)cccc3nc2-1,"inconclusive: 17.8 µM [inhibitor, full curve]"
12,COc1ccc2c(c[n+](C)c3c4cc5c(cc4ccc23)OCO5)c1OC,"inconclusive: 15 µM [inhibitor, partial curve, poor fit]"
13,CNc1ccc2oc(C[C@H]3O[C@@]4(CC[C@H]3C)O[C@H]([C@H](C)C(=O)c3ccc[nH]3)[C@H](C)C[C@H]4C)nc2c1C(=O)O,"inconclusive: 2.99 µM [inhibitor, single point]"
14,O=C1NC(=O)N(c2ccc3c(c2)OCO3)C(=O)/C1=C/c1cccs1,"inconclusive: 89.1 µM [inhibitor, partial curve, poor fit]"
15,O=C(Nc1ccc(Oc2ccc(Cl)cc2)c(Cl)c1)c1cc(I)cc(I)c1O,"inconclusive: 50.1 µM [inhibitor, partial curve, poor fit]"
16,C=CCN1C(=O)NC(=O)/C(=C/c2ccc(OCC(=O)Nc3ccc(C)cc3)cc2)C1=O,"inconclusive: 25.1 µM [inhibitor, partial curve, poor fit]"
